Hit rate of the full screen: of about 390,000 compounds, about 17,000 (4.4%) were called active. This list was built around the results that the source calls inconclusive (neither active nor inactive); the mix of calls is not that of the screen. Calls come from the whole dose curve; as a rule, active = well fitted inhibition curve with a large enough effect; inconclusive = small, poorly fitted or top-dose-only effect; inactive = no such curve, though single readings can be large or run the other way. Potencies beside an inconclusive call are fits to weak or partial responses and may not hold up.
Molecular target: Lysine-specific demethylase 4A (Homo sapiens) (UniProt O75164)
Sequence of UniProt O75164 (O75164 whole entry, looked up, the tested form may be a part): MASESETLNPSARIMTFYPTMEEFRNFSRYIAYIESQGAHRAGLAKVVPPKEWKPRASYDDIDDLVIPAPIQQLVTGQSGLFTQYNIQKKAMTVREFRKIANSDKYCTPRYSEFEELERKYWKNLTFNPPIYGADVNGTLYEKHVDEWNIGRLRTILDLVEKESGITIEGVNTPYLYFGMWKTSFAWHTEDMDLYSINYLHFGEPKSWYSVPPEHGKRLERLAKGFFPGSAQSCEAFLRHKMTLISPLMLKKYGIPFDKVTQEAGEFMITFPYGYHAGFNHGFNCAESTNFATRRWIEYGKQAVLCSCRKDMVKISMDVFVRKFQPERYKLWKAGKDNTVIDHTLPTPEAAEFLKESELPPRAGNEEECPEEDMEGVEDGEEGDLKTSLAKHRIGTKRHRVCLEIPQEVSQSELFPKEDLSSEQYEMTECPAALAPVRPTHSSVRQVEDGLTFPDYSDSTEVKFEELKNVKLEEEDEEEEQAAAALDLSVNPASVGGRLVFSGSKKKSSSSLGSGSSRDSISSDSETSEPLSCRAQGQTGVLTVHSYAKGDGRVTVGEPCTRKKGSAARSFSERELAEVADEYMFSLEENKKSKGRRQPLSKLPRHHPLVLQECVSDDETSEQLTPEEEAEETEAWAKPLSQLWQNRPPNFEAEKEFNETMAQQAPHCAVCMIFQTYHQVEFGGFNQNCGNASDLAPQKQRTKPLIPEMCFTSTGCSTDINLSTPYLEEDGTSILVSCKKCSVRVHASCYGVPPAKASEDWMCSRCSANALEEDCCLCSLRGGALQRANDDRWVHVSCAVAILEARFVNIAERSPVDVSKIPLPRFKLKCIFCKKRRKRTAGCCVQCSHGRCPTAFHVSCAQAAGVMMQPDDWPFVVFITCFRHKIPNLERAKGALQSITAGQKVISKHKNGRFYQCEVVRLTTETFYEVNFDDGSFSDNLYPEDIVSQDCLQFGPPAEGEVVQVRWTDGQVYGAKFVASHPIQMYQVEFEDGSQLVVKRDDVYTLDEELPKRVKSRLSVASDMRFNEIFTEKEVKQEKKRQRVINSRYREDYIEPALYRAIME
Assay: qHTS Assay for Inhibitors of JMJD2A-Tudor Domain; note: nearly all actives have a fitted effect of over 50% in size
Settings: AlphaScreen JMJD2A-Tudor / H3K4me3 peptide binding; activity change, negative = inhibition: at 114 µM (top of the series)
% is set by controls: 0 for no effect and ±100 for the full control effect; potency is the fitted concentration of half-maximal effect; tags give direction and shape of the fitted curve.

Structure (SMILES) | Potency | activity change, negative = inhibition
Cc1cccc(NC(=O)c2cc(CN3CCOCC3)on2)c1C | inactive | –
Cc1ccc(NC(=O)NCCOCCn2c(=O)oc3ccccc32)c(C)c1 | inactive | –
Cc1cc(/C=C(\C#N)C(=O)NCc2ccco2)c(C)n1-c1cccnc1 | inconclusive: 100 µM [inhibitor, partial curve, poor fit] | –
CCn1c(NN)nc2sc3c(c2c1=O)CCC3 | inconclusive: 89.1 µM [inhibitor, single point] | –
O=C(Nc1cc2c3c(c1)C1CCCC1CN3CC1CCCC21)c1ccc([N+](=O)[O-])cc1 (configuration not stated) | inconclusive: 14.1 µM [inhibitor, partial curve] | –
O=C(N/N=C/c1cccc([N+](=O)[O-])c1)c1ccc2c(c1)OCCO2 | inactive | –
CC(C)C[C@@H](C(=O)NC1CCN(Cc2ccccc2)CC1)N1C(=O)N2CCc3c([nH]c4ccccc34)[C@@]2(C)C1=O | active: 39.8 µM | –
CC(NC(=O)C12CC3CC(CC(C3)C1)C2)C(=O)N/N=C/C1=C(N2CCOCC2)C(=C\c2cccc([N+](=O)[O-])c2)/CC1 (configuration not stated) | inconclusive: 7.08 µM [inhibitor, full curve] | –
c1cnc2c(SCc3ccc(-c4nnco4)cc3)cccc2c1 | inconclusive: 89.1 µM [inhibitor, partial curve] | –
CCOC(=O)c1c(C)[nH]c(C)c1C(=O)COC(=O)c1cccc(S(=O)(=O)N(CC)CC)c1 | inconclusive: 56.2 µM [inhibitor, partial curve] | –
O=C1C2CCCN2C(=O)N1CCN1CCN(c2cccc(C(F)(F)F)c2)CC1 (configuration not stated) | inconclusive: 79.4 µM [inhibitor, partial curve] | –
CC(=O)C[C@@H](O)CC(=O)[C@@H]1OC(=O)CCCCCCCCc2ccccc21 | inactive | –
CCOc1ccccc1CN1CCCC(C(=O)c2ccc(OC)c(OC)c2)C1 (configuration not stated) | inactive | –
Cc1sc(N)nc1-c1ccccc1 | inactive | –
Cc1cc([N+](=O)[O-])ccc1-c1ccc(C2Nc3ccccc3C(=O)N2O)o1 (configuration not stated) | inconclusive: 17.8 µM [inhibitor, full curve] | –
Cc1ccc2cc3cc(C(=O)N4CC(C)CC(C)C4)oc3nc2c1 (configuration not stated) | – | inactive: -27.5% [at 11.4 µM]
CCOc1cc(/C=N/NC(=O)c2ccc(-c3csc(Nc4ccc(C)cc4)n3)cc2)ccc1OCC(=O)O | inconclusive: 56.2 µM [inhibitor, partial curve] | –
Cc1ccccc1-n1nc2c(c1NC(=O)c1ccc(Br)o1)CSC2 | inconclusive: 56.2 µM [inhibitor, partial curve] | –
CN(C)c1ccc(NC(=O)CSC2=Nc3ccccc3C3=NC(CC(=O)NCc4ccccc4)C(=O)N23)cc1 (configuration not stated) | inconclusive: 56.2 µM [inhibitor, partial curve] | –
Nc1nc(SCC(=O)c2cc3ccccc3o2)n[nH]1 | inconclusive: 25.1 µM [inhibitor, full curve] | –
COc1ccc(C)cc1NC(=O)c1nn(-c2ccccc2)cc1OC | inactive | –
O=C(ONC(=O)C1CCCCC1C(=O)NOC(=O)c1ccccc1)c1ccccc1 (configuration not stated) | inconclusive: 79.4 µM [inhibitor, single point] | –
COc1ccc(CCNCC(O)COc2ccc(OC)cc2C(C)(C)C)cc1 (configuration not stated) | active: 3.55 µM | –
FC(F)(F)c1cc(CCN2CCNC[C@@H]2CC2CCCCC2)cc(C(F)(F)F)c1 | inconclusive: 89.1 µM [inhibitor, partial curve] | –

Structure (SMILES) | Potency | activity change, negative = inhibition
CCO[C@H]1OC(C(=O)O)=C[C@@H](c2ccccc2)[C@@H]1CCCO | inactive | –
CCOc1ccc(C(=O)Nc2ccccc2NC(C)=O)cc1OCC | inactive | –
O=c1[nH]ncn1-c1ccccc1C(F)(F)F | inactive | –
Cc1ccc(S(=O)(=O)NCCC(=O)Nc2ccc(C)cc2C(=O)c2ccccc2)cc1 | active: 50.1 µM | –
COc1ccc(CNC(=O)CN(C)Cc2ccc(C(C)(C)C)cc2)cc1 | active: 2.82 µM | –
Cc1nn(CC(=O)Nc2cccc(C(F)(F)F)c2)c(=O)c2cccn12 | inconclusive: 39.8 µM [inhibitor, single point] | –
O=C(C1=C[C@H](c2coc3ccccc3c2=O)C[C@H](OCc2ccc(CO)cc2)O1)N1CCN(Cc2ccccc2)CC1 | inconclusive: 63.1 µM [inhibitor, partial curve, poor fit] | –
CC(NC(=O)C1CCCC1)c1ccccc1 (configuration not stated) | inactive | –
Cc1c(C)c2ccc(OCC(=O)NCCCn3ccnc3)cc2oc1=O | active: 22.4 µM | –
Cc1cc2cc(CN(Cc3ccco3)C(=S)NCC3CCCO3)c(=O)[nH]c2cc1C (configuration not stated) | inconclusive: 15.8 µM [inhibitor, full curve, poor fit] | –
COc1cc(NC(=O)c2ccc3c(c2)OCO3)ccc1NC(=O)C(C)C | active: 79.4 µM | –
O=[N+]([O-])c1ccc(C=Nc2cccc3ccccc23)s1 | active: 39.8 µM | –
COc1cccc(-c2cc(C(=O)N3N=C(C)CC3(O)C(F)F)c3ccccc3n2)c1 (configuration not stated) | inconclusive: 63.1 µM [inhibitor, partial curve, poor fit] | –
Cc1cccc(C(=O)NCCC(=O)Nc2ccc(C#N)cc2)c1 | inactive | –
CCOc1ccccc1/C=N/Nc1ccccc1[N+](=O)[O-] | inconclusive: 1.58 µM [inhibitor, full curve, poor fit] | –
O=C(NCc1ccccc1)C(=O)NCC(c1cccnc1)N1CCN(c2ccccc2)CC1 (configuration not stated) | inactive | –
CCN1CCN(c2ccc(S(=O)(=O)N3CCOCC3)cc2NC(=O)c2ccc(OCC(C)C)cc2)CC1 | inconclusive: 56.2 µM [inhibitor, partial curve] | –
CCOC(=O)c1c(NC(=O)C(C)Sc2c[nH]c3ccccc23)sc2c1CCC2 (configuration not stated) | inconclusive: 22.4 µM [inhibitor, partial curve] | –
CCN(CC)C(=O)[C@H]1C[C@H](CC(=O)NCc2ccc(OC)c(OC)c2)C(=O)N2CCc3c([nH]c4ccc(Cl)cc34)[C@]12C | inconclusive: 79.4 µM [inhibitor, partial curve] | –
CN(CC(=O)NCCN1CCCCCC1)S(=O)(=O)c1cccc2nsnc12 | inconclusive: 44.7 µM [inhibitor, partial curve, poor fit] | –
NC(=O)CSc1nc2c(sc(=S)n2-c2ccccc2)c(=O)[nH]1 | inactive | –
COc1ccc(N=C2NN=C(c3ccc4c(c3)OCCO4)CS2)cc1 | inconclusive: 56.2 µM [inhibitor, partial curve, poor fit] | –
Cc1ccc(NC(=O)CCc2c(C)nc3nc(C)nn3c2C)c(Cl)c1 | inactive | –
CCOC(=O)COn1c(=O)c(-c2ccc(C)cc2)[n+]([O-])c2ccccc21 | inactive | –

Structure (SMILES) | Potency | activity change, negative = inhibition
CNC(=O)c1ccc(Nc2nnc(-c3ccc(C)c(S(=O)(=O)N4CCOCC4)c3)c3ccccc23)cc1 | inactive | –
CCOC(=O)c1ccccc1NC(=O)N(Cc1ccco1)C1CCN(C(C)=O)CC1 | inactive | –
COc1cc(OC)c(C2N(c3ccc(Cl)c(Cl)c3)C(=O)C3CCCN32)cc1OC (configuration not stated) | inconclusive: 31.6 µM [inhibitor, partial curve] | –
CCc1cccc(NC(=O)CN2C=NS(=O)(=O)c3ccccc32)c1 | inactive | –
Cc1ccc(C)c(NC(=S)c2ccc3ccccc3n2)c1 | inconclusive: 22.4 µM [inhibitor, full curve] | –
CCOC(=O)N1CCN(C(=S)NC(=O)c2ccnn2C)CC1 | inconclusive: 89.1 µM [inhibitor, single point] | –
COc1ccc(OC)c(-n2c(-c3cccc(C)c3)n[nH]c2=S)c1 | – | inconclusive: -97.8% [inhibitor]
C=C(C)c1cccc(C(C)(C)NC(=O)Nc2ccc(OC)nc2)c1 | inactive | –
COc1ccc(-c2cc3c(nn2)-c2ccccc2C3=O)cc1 | active: 22.4 µM | –
COc1cc(CN2CCN(C(=O)c3ccc(-c4ccccc4)cc3)CC2)cc(OC)c1OC | active: 7.94 µM | –
COc1ccc(OC)c(CNC(=O)CN2C(=O)CCn3nc(-c4cn(C)c5ccccc45)cc32)c1 | inconclusive: 35.5 µM [inhibitor, full curve, poor fit] | –
Cc1ccc(C(C(=O)Nc2ccc3c(c2)OCO3)N(C)C(=O)/C=C\c2ccc3c(c2)OCO3)cc1 (configuration not stated) | inconclusive: 22.4 µM [inhibitor, full curve, poor fit] | –
CCCc1cc(=O)[nH]c2nnc(SCC(=O)Nc3nnc(CC)s3)n12 | active: 25.1 µM | –
Cc1cccc(N2CCN(C(=O)Cn3c(=O)c4cccn4c4ccc(F)cc43)CC2)c1C | inactive | –
CC1=C(C(=O)NCc2ccc(Cl)cc2)C2(CCCCCC2)OC1=O | inactive | –
Cc1nc2sc(C(=O)Nc3ccccc3)c(N)c2c(C)c1[N+](=O)[O-] | inconclusive: 14.1 µM [inhibitor, partial curve, poor fit] | –
O=C(NCCN1CCN(c2ccccc2)CC1)c1cccc(Cl)c1 | inactive | –
CCC(C)NC(=O)c1cc(OC)c(OC)c(OC)c1 (configuration not stated) | inconclusive: 35.5 µM [inhibitor, full curve] | –
Nc1c(Cl)ncnc1Nc1ccc(C(=O)O)cc1 | active: 12.6 µM | –
N#Cc1nc(Cc2cccc3ccccc23)oc1NCc1ccco1 | inconclusive: 44.7 µM [inhibitor, partial curve] | –
CC1=NN=C(c2ccccc2)C(c2c[nH]c3ccccc23)N1O (configuration not stated) | inactive | –
CC1CCN(CCOCCOc2ccc(Br)cc2Cl)CC1 | active: 2.82 µM | –
S=c1[nH]nc(-c2cc(-c3ccsc3)n[nH]2)n1-c1ccccc1 | active: 44.7 µM | –
COc1ccc(CN(C(=O)Cc2c[nH]c3ccccc23)C(C(=O)NC2CCCCC2)c2ccc(C)o2)cc1 (configuration not stated) | inconclusive: 12.6 µM [inhibitor, full curve, poor fit] | –

Reference: PubChem BioAssay AID504339 (National Center for Advancing Translational Sciences (NCATS), 2011)
